Z-score data for 110 compounds are collected here from PubChem BioAssay AID488969 (Vanderbilt High Throughput Screening Facility, 2010).

The structures appear in SMILES notation. The full ranking holds about 110,000 compounds; the median of “z-score” is about -0.1, and the highest 2% start at about 2. Some of the results follow. Calls of active or inactive are those of the source.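 How the source made its calls: active means z-score in the third read window above 3 or below -3; inactive means the rest.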

For this test, the target named is Metabotropic glutamate receptor 8 (Rattus norvegicus) (UniProt P70579). Nature of the test: rat mGluR8 modulators via GIRK flux, primary screen, cell-based, thallium flux, HTS (AID 488969). To be noted: HEK293 rat mGluR8, GIRK (G protein-gated inwardly rectifying potassium channel) thallium flux, FluoZin2; at 10 µM; stronger effect = higher value; submaximal glutamate (EC20) added with thallium.
Chain of UniProt P70579 (P70579 whole entry, looked up): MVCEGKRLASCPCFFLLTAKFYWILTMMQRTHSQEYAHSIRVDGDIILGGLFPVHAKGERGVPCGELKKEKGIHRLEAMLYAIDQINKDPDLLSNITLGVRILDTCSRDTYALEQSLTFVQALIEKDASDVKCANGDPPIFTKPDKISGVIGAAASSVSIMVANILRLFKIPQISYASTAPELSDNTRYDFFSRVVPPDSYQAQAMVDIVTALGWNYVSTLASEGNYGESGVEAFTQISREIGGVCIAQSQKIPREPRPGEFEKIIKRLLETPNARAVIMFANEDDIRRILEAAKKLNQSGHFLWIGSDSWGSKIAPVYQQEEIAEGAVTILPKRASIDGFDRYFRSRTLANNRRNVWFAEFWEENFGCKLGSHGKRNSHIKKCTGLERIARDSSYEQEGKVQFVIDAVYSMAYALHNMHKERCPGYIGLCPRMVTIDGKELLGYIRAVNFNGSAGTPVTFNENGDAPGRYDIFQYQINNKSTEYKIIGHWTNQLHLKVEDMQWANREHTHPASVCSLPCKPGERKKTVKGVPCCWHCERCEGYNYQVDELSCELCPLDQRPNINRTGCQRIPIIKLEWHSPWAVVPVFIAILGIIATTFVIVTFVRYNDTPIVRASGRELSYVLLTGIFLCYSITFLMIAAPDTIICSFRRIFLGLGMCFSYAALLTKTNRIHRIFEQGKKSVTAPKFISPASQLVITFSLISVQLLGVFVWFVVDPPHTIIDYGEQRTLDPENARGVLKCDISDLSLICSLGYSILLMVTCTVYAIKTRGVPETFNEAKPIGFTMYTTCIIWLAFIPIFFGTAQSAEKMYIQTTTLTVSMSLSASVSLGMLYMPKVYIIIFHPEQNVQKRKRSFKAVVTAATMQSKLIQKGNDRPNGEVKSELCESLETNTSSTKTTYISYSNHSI
Regarding `Cc1ccnc(NC(=O)CCC(=O)N(CC(=O)NCCc2ccccc2)Cc2ccco2)c1`, the z-score is -1.16.

Compound `O=C(NC1CCCC1)c1cccc(NC(=O)c2ccco2)c1` registered a z-score of 0.253.

The compound `COc1ccc(C2CC(c3cccc(C)c3)n3ncnc3N2)cc1` (stereo not given) displayed a z-score of 0.0466.

For `O=C1c2ccccc2C(Nc2ccc(S(=O)(=O)N3CCCCC3)cc2)N1Cc1ccco1` (stereo not given), the z-score amounted to 0.0215.

`CCOC(=O)c1ccc(NC(=O)N2CCCCC2)cc1` gave a z-score of 0.0782.

Compound `O=C(CCNC(=O)c1ccccc1Cl)Nc1nc(-c2ccc(F)cc2)cs1` came in with a z-score of -0.467.

Take `Cn1c(SCC(=O)NCCc2ccccc2)nnc1-c1ccncc1`: the z-score is -0.197.

The compound `Cc1cc2n(n1)C(c1c[nH]c3ccccc13)Nc1ccccc1-2` (stereo not given) showed a z-score of 0.517.

`Cc1ccc(OCc2nnc(SCC(=O)c3ccccc3)n2Cc2ccco2)cc1` showed a z-score of -0.406.

In turn, `CN(C)CCNc1oc(-c2cccc(Cl)c2)nc1C#N` came in with a z-score of 2.54.

On to `COC(=O)Cn1c2ccccc2c2nc(C)sc21`, for which the z-score is 0.312.

`COC(=O)Nc1ccc(S(=O)(=O)NCCO)cc1` returned a z-score of -0.00223.

`CC(=O)Nc1ccc(S(=O)(=O)NCC(=O)OCC(=O)NC23CC4CC(CC(C4)C2)C3)cc1`: the z-score is 0.517.

Take `CCOC(=O)c1c(NC(=O)c2ccn(CC)n2)sc2c1CCCC2`: the z-score was determined as 1.31.

Compound `CCCOc1ccc(C(=O)Nc2ccccc2[N+](=O)[O-])cc1` displayed a z-score of 0.158.

Compound `O=C(CSc1cccc2cccc(Cl)c12)OCC(=O)N1CCN(C(=O)c2ccco2)CC1` registered a z-score of 0.312.

With `CCOCCCNC(=O)C(NC(=O)c1ccc(=O)[nH]c1)c1ccc(Cl)cc1` (stereo not given), the z-score was -0.13.

Consider `Cc1ccc(NC(=O)Cc2ccccc2Cl)cc1S(=O)(=O)N(C)C`, for which the z-score was active: 12.9.

`Brc1nnc2n1-c1ccccc1Sc1ccccc1-2`: the z-score was -1.45.

Take `COc1ccc(OC)c(C(O)c2nc3ccccc3n2C(C)C)c1` (stereo not given): the z-score is -0.357.

The compound `O=C(c1cccc2ccccc12)N1CCN(CC2CC=CCC2)CC1` (stereo not given) had a z-score of 0.744.

Compound `CCOC(=O)c1cc(OC(=O)c2ccccc2OC)n(-c2ccccc2)n1` came in with a z-score of -1.31.

`COC(=O)/C(C#N)=C/c1c(Oc2cc(C)cc(C)c2)nc2c(C)cccn2c1=O`: the z-score is -0.266.

For the compound `O=C(COc1ccc(-c2ccccc2)cc1)N1CCN(C(=O)c2cccnc2)CC1`, the z-score came to 0.288.

Regarding `COc1ccc(C(=O)Nc2nc(N3C(=O)c4ccccc4C3=O)n(-c3ccccc3)n2)cc1`, the z-score is -0.321.

Compound `CCc1ccc(/C=N/NC(=S)NCCc2ccccc2)cc1` returned a z-score of 0.0899.

As to `CCc1c(C)sc(NC(=O)c2cccs2)c1C(N)=O`, the z-score was -0.157.

For the compound `Cc1ccc(-n2c(Cc3ccccc3)nnc2SCC(=O)NNC(=O)Cc2ccccc2)cc1`, the z-score was -0.231.

`CC(Sc1nnc(-c2cccnc2)n1-c1ccccc1F)C(=O)N1CCCc2ccccc21` (stereo not given) showed a z-score of -0.138.

For the compound `Cc1cccc(C)c1OCC(=O)N/N=C/c1cccn1C`, the z-score was -0.372.

`O=C(CN1CCc2ccccc2C1)N1CCN(S(=O)(=O)c2ccccc2)CC1` yielded a z-score of -0.115.

As to `Cc1nnc(NC(=O)c2cccc(S(=O)(=O)N3CCOCC3)c2)s1`, the z-score amounted to 0.716.

`COc1cc(/C=N/NC(=Nc2ccc(C)cc2)c2nc3ccccc3s2)ccc1O` gave a z-score of -0.0851.

With `N#C/C(=C\c1cccs1)Sc1nc2ccccc2s1`, the z-score is -0.0135.

As for `COc1ccc(C2SC[C@@H](C(=O)O)N2C(C)=O)cc1` (stereo not given in full), the z-score is -0.0378.

Turning to `CSc1ccccc1NC(=O)CN(Cc1ccc(Cl)cc1)S(C)(=O)=O`, the z-score worked out at 0.432.

`CSc1nc(N)nc(SCC(=O)C23CC4CC(CC(C4)C2)C3)c1C#N` showed a z-score of 0.026.

`N#Cc1c(NC(=O)CN2C(=O)c3ccccc3C2=O)oc(-c2ccccc2)c1-c1ccccc1` came in with a z-score of -1.22.

With `Cc1nn(Cc2ccc(Cl)cc2)c(C)c1NC(=O)c1cc(-c2ccco2)on1`, the z-score is -0.503.

For `COc1ccc(Sc2ccc(/C=C3\C(=O)NN(c4ccccc4)C3=O)o2)cc1`, the z-score was -0.119.

`C/C(=N\NC(=O)C1CC1c1ccccc1)c1ccc(C)s1` (stereo not given): the z-score is -0.341.

Take `Cc1cccc(C(=O)N2CCCN(C(=O)c3cccc(C)c3)CC2)c1`: the z-score is -0.313.

`CCn1c(=O)c(=O)[nH]c2cc(C(=O)NCC3CCCCC3)ccc21` had a z-score of -1.01.

The compound `O=C(Cn1c(=O)oc2cc(S(=O)(=O)N3CCCCCC3)ccc21)NC1CCCCC1` had a z-score of 0.236.

In turn, `Cc1ccc(Nc2nc(NCC3CCCO3)nc(N)c2[N+](=O)[O-])cc1` (stereo not given) displayed a z-score of -0.463.

In turn, `Cc1[nH]n(-c2ccccc2)c(=O)c1/C=N/c1ccccn1` came in with a z-score of 2.61.

For the compound `Cc1ccccc1Oc1nc2ccccn2c(=O)c1/C=C(\C#N)C(=O)Nc1c(C)n(C)n(-c2ccccc2)c1=O`, the z-score is -0.306.

Compound `CCn1c(SCC(=O)NCc2ccccc2)nc2c(c1=O)SC(C)C2` (stereo not given) gave a z-score of -0.527.

Compound `O=c1cc(-c2ccccc2)c2c([nH]1)CCCC2` registered a z-score of -0.18.

`N=c1n(CCN2CCCC2)c2ccccc2n1CC(O)c1ccco1` (stereo not given) returned a z-score of 0.673.

`CCCCc1c(C)c(C#N)c2nc3ccccc3n2c1Nc1c(C)n(C)n(-c2ccccc2)c1=O` showed a z-score of -0.643.

In turn, `Cc1cc(Cl)ccc1OCCCC(=O)N1CCOCC1` showed a z-score of -0.0277.

With `CCOC(=O)c1c(C)n(C)c2ccc(OCC(N)=O)cc12`, the z-score was -1.72.

Regarding `COc1cccc(CN2CCN(C(=O)c3cccc(F)c3)CC2)c1`, the z-score was -0.0593.

Compound `CS(=O)(=O)N1CCCC(C(=O)NCc2ccc(F)cc2Cl)C1` (stereo not given) came in with a z-score of -0.209.

Consider `CCOC(=O)N1CCN(CCC(=O)c2ccc(Cl)cc2)CC1`, for which the z-score is -1.38.

`CC1C/C(=N\NC(=S)NC(C)C)CC(C)(C)C1` (stereo not given) registered a z-score of 0.954.

Take `N=c1n(CC(=O)O)c2ccccc2n1Cc1ccccc1Cl`: the z-score was -0.107.

In turn, `O=C(OCC(=O)c1ccc(Cl)s1)c1ccccn1` had a z-score of -0.0208.

`Cc1ccc(C(=O)N2CCOCC2)cc1Cl`: the z-score is -0.114.

The compound `Cc1cc(C)c(S(=O)(=O)n2ccc(-c3ccc(OCCN(C)c4ccccn4)cc3)n2)c(C)c1` displayed a z-score of -0.0145.

The compound `Cc1nccn1-c1ncnc2sc3c(c12)CCCC3` registered a z-score of -0.019.

With `CS(=O)(=O)N(CC(=O)Nc1c(F)cccc1F)c1ccc(C23CC4CC(CC(C4)C2)C3)cc1`, the z-score was -0.145.

Take `O=C(NCCN1CCCCCC1)C1CCC(CNS(=O)(=O)c2cccc3cccnc23)CC1` (stereo not given): the z-score is -0.387.

For the compound `CCS(=O)(=O)N1CCN(c2ccc(Cl)cc2[N+](=O)[O-])CC1`, the z-score came out at 0.325.

Take `Cn1c(=O)n(CC(=O)Nc2cccnc2)c2ccccc21`: the z-score is -0.362.

For the compound `CCC(C(=O)Nc1c[nH]c(=O)[nH]c1=O)c1ccccc1` (stereo not given), the z-score was -0.185.

`CCCC(=O)Nc1ccc(S(=O)(=O)Nc2cc(C)nc(C)n2)cc1` displayed a z-score of -0.809.

For the compound `CC(=O)c1cc(-c2ccccc2)n(CC(=O)NC2CCCC2)c1C`, the z-score turned out to be 0.31.

Take `CC(C)(C)NC(=O)c1oc2ccccc2c1COc1ccccc1`: the z-score was -0.0414.

As to `O=C(Cn1nnc(-c2ccccc2NC(=O)c2ccco2)n1)NC1CCCCC1`, the z-score is 0.12.

In turn, `CC(C)(C)CC(=O)OCC(=O)Nc1cc(C(C)(C)C)nn1-c1ccccc1` showed a z-score of -0.407.

`CC(C)OC(=O)c1c(NC(=O)Cn2cnc([N+](=O)[O-])n2)sc2c1CCCC2` displayed a z-score of 0.393.

For `COC(=O)C1C(=O)C2=C(CC1C)NC(C)=C(C(=O)OC(C)C)C2c1ccc(C)o1` (stereo not given), the z-score worked out at 0.1.

Compound `O=C(CSc1ncnc2c1oc1ccccc12)NCC1CCCO1` (stereo not given) came in with a z-score of -0.215.

As to `CCOC(=O)c1cc(-c2ccc(N3CCOCC3)cc2)nn1-c1ccccc1`, the z-score is -0.59.

With `CCOc1ccc(OCCSc2nc3ccccc3[nH]2)cc1`, the z-score is active: 3.67.

In turn, `Cn1cc(/C=N/NC(=O)COc2ccccc2[N+](=O)[O-])c2ccccc21` displayed a z-score of -0.104.

For `COc1ccc(Cn2nnnc2C(c2cccs2)N2CCOCC2)cc1` (stereo not given), the z-score came out at 0.79.

In turn, `Cc1cc[n+](-c2nc3ccccc3nc2[N-]S(=O)(=O)c2ccccc2)cc1` came in with a z-score of -0.0628.

For the compound `CSCCC(C(=O)NC1=NCCS1)N1C(=O)c2ccccc2C1=O` (stereo not given), the z-score was -0.114.

Compound `Cc1c(O)ccc2c3c(c(=O)oc12)CCCC3` gave a z-score of -0.491.

Regarding `COc1ccc2c(c1)-c1c(sn(-c3ccc(OC)c(OC)c3)c1=S)C(C)(C)N2`, the z-score was -0.354.

Turning to `Cc1ccc(NC(=O)c2cc(N3C(=O)C=CC3=O)ccc2N2CCOCC2)cc1Cl`, the z-score is -0.485.

In turn, `CCSc1nc2ccccc2n1CC(=O)OC` returned a z-score of 0.0654.

For `CC(C)C(OC(=O)c1cccs1)C(=O)NCc1ccco1` (stereo not given), the z-score turned out to be 0.681.

`C=CCOC(=O)COc1ccc2c(C)c(C)c(=O)oc2c1C` registered a z-score of -0.629.

Regarding `Cc1cc(C)nc(NN=C2CCCC2)n1`, the z-score is 0.417.

Turning to `COc1ccccc1C(=O)NCC(=O)OCC(=O)c1ccc2c(c1)-c1ccccc1C2`, the z-score was found to be 0.242.

Compound `Nc1cc(-c2cccc([N+](=O)[O-])c2)[nH]n1` gave a z-score of 0.124.

In the case of `O=C(CSc1ncn[nH]1)c1ccc2c(c1)OCCO2`, the z-score was -0.487.

`CC(=O)N1CCN(c2ccc(NC(=O)c3ccc(C(C)(C)C)cc3)cc2)CC1` came in with a z-score of -0.142.

Compound `Cc1ccc(C(=O)Nc2cccc([N+](=O)[O-])c2)cc1S(=O)(=O)Nc1ccc(NC(=O)c2ccccc2)cc1` registered a z-score of -0.0252.

The compound `Cc1ccc(S(=O)(=O)N2CCCC2C(=O)OCC(=O)Nc2ccc3c(c2)OCO3)cc1` (stereo not given) yielded a z-score of -0.265.

`Cn1c(N)c(C(=O)c2ccc(Cl)cc2)c(=O)n(C)c1=O`: the z-score is 0.632.

Compound `CCN(C(=O)COC(=O)c1cc(NS(=O)(=O)c2ccc(Cl)c([N+](=O)[O-])c2)ccc1O)C1CCCCC1` had a z-score of 2.

For the compound `COC(=O)c1ccc(SCC(=O)NC2CCCC2)c([N+](=O)[O-])c1`, the z-score turned out to be 0.103.

Compound `Cc1nc2ccccc2cc1OCc1ccccc1` had a z-score of -0.299.

Regarding `CS(=O)(=O)N1CCCC(C(=O)NCc2ccccc2Cl)C1` (stereo not given), the z-score was determined as 0.223.

`O=C(Cn1cnc2cc(Cl)ccc2c1=O)Nc1ccc2c(c1)OCO2` displayed a z-score of -0.115.

The compound `O=C(CCCOc1ccccc1)N1CCCCC1` displayed a z-score of -0.959.

With `COc1ccc(OC)c(NC(=O)CSc2nnc(N)s2)c1`, the z-score was -0.287.

In turn, `CC1CN(C2CCN(C(=O)COc3ccccc3)CC2)CC(C)O1` (stereo not given) returned a z-score of 0.629.

With `O=C1CCCCCN1CSc1nc2ccccc2s1`, the z-score came out at 0.104.

In turn, `O=S(=O)(NCCOc1ccc(F)cc1)c1ccc2c(c1)OCCO2` gave a z-score of -0.332.

In turn, `COC(=O)c1ccc(S(=O)(=O)NCc2cccc(OC)c2)n1C` gave a z-score of -0.366.

For the compound `CCN1CCCC1CNS(=O)(=O)c1ccc(C(=O)Nc2ccccc2)cc1` (stereo not given), the z-score came out at 0.276.

Compound `Cc1ccc2cc(C)c3nnc(SCC(=O)Nc4nc5c(s4)CCCC5)n3c2c1C` registered a z-score of -0.125.

`CC(C)C1(C)C(=O)N=C2c3ccccc3C(=O)N21` (stereo not given) gave a z-score of -0.22.

As for `Cc1cc(C)cc(N(C(=O)Cn2nnc(-c3ccccc3)n2)C(C(=O)NC2CCCCC2)c2ccccn2)c1` (stereo not given), the z-score was -0.269.
